Measured values taken from PMC4336329 (PLoS ONE, 2015).
Among all 310,000 compounds or so, about 2,200 (0.71%) showed an effect of 50% or more. Effects have a minus sign here. Some of the results follow.

Biological target: human ether-à-go-go-related gene (hERG) potassium channel (human, UniProt Q12809)
Experiment: primary screen, population patch clamp on CHO cells stably expressing hERG

human ether-à-go-go-related gene (hERG) potassium channel, sequence (Q12809 whole entry, looked up): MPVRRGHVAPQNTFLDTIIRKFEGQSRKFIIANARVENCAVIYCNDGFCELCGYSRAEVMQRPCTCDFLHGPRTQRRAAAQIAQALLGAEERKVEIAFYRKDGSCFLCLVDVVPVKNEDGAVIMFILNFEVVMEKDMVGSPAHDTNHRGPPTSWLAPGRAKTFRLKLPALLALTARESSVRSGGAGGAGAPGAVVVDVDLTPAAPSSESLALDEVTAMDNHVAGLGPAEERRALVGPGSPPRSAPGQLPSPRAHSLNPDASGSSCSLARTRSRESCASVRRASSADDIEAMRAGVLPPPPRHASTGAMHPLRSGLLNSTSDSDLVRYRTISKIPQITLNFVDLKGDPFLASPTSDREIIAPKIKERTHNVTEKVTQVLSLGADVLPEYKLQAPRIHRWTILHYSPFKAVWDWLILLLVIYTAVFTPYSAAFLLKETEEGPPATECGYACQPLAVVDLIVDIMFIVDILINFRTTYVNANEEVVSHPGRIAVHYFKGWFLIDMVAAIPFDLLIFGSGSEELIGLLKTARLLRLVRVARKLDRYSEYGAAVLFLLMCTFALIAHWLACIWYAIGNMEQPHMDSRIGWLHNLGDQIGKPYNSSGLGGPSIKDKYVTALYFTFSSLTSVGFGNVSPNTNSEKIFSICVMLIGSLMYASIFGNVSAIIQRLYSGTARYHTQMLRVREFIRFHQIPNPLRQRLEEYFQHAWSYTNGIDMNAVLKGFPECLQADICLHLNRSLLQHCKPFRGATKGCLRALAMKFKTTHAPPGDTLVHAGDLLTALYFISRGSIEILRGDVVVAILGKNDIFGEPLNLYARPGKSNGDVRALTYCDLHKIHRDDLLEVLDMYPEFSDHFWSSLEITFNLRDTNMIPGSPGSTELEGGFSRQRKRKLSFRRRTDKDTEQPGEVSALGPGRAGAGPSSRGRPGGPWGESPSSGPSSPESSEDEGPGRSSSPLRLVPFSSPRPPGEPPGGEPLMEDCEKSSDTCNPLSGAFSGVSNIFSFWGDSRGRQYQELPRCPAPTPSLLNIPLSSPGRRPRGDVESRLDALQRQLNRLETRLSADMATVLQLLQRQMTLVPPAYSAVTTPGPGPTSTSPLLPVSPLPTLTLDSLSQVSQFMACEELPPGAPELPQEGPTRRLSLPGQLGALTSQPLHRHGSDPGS

Point of comparison: CCn1c(CSc2nc(C)cc(C)n2)nnc1SCC(N)=O, “hERG current change (%, negative = inhibition) at 1uM” value 14.1%. Against it:
- CCOC(=O)c1c(C)[nH]c(C(=O)OCC(=O)N2CC(C)OC(C)C2)c1C (stereo not drawn) — higher, 17.4%
- Cc1onc(-c2c(F)cccc2Cl)c1C(=O)Nc1ccccc1N1CCOCC1 — higher, 14.8%
- COc1cccc(C(=O)NC(=S)Nc2ccc([N+](=O)[O-])cc2C)c1 — lower, 5.88%
- Cc1cc(OCc2cc(C(=O)N(C)CCOc3ccccc3)no2)cc(C)c1Cl — lower, 6.19%
- Cc1c2ccccc2nc2c(F)c(NCCO)c(F)c(F)c12 — lower, 13.9%
- COc1cc(C#N)ccc1OCC(=O)Nc1cccc(S(=O)(=O)N2CCCC2)c1 — lower, 7.57%
- COc1ccc(-c2nnc(SCC(=O)Nc3ncc(C(F)(F)F)cc3Cl)n2CC(C)C)cc1 — lower, -8.9%
- Cc1ccc(S(=O)(=O)N2[C@@H](c3ccccc3)C(C(=O)O)=CC[C@H]2c2ccc(Cl)c(Cl)c2)cc1 — higher, 17.7%
- Cc1ccc(CNC(=O)CN(C(=O)C2(C)CC(=O)N=C3C=CC=CN32)c2cccc(C)c2C)cc1 (stereo not drawn) — lower, 12.6%
- Cc1ccc(C2=NN(CC(=O)NCc3ccccn3)C(=O)CC2)cc1 — lower, 0.28%
- CC1CN(C(=O)Cn2cc(S(=O)(=O)CC(=O)N3CCOCC3)c3ccccc32)CC(C)O1 (stereo not drawn) — lower, 12.9%
- Cc1ccc(CCNC(=O)C2CCCN(S(=O)(=O)c3cccc4nsnc34)C2)cc1 (stereo not drawn) — lower, 12.6%
- S=C(c1ccccc1)N1CCCc2ccccc21 — lower, 3.14%
- COc1cc(NS(=O)(=O)c2ccc(N/C=C(\C#N)c3nc4ccccc4o3)cc2)nc(OC)n1 — lower, 0.344%
- CC(=O)Nc1ccc(Nc2nnc(-c3ccc(C)c(S(N)(=O)=O)c3)c3ccccc23)cc1 — lower, 12.8%
- COc1ccc(CS(=O)(=O)c2nc(C)cc(C)c2S(C)(=O)=O)cc1 — lower, 6.6%
- Cc1ccc(C)c(CSc2nnc(C)c(=O)[nH]2)c1 — higher, 14.8%
- CCOC(=O)c1c(C)oc(C)c(C(=O)OCC)c1=O — higher, 17.1%
- Cc1ccc2nc(C)c3c(c2c1)SCC3 — lower, 1.85%
- Cc1ccc(NC(=O)CSc2ccccc2)cc1S(=O)(=O)N1CCCCC1 — lower, 9.21%
- CN(C(=O)c1ccc2c(=O)n3c(nc2c1)CCCCC3)c1ccccc1Cl — lower, -0.15%
- Cc1cc(=O)[nH]c(SCC(=O)Nc2ccc(F)cc2)c1C#N — lower, 12.5%
- CN1CCN(C(=O)COc2ccc(S(=O)(=O)Nc3ccc(F)cc3)cc2)CC1 — lower, 12.6%
- Cc1ccc(NC(=O)CCCn2c(=S)[nH]c3ccsc3c2=O)cc1C — higher, 18.7%
- CCN(CC)CCN1C(=O)C(O)=C(C(=O)c2cc3ccccc3o2)C1c1cccnc1 (stereo not drawn) — lower, 5.98%
- CN(Cc1ccccc1)S(=O)(=O)CCNC(=O)c1ccc2c(c1)OCO2 — higher, 18.6%
- O=C(/C=C/c1ccc(F)cc1)NC(=S)Nc1ccccc1O — lower, 13.6%
- Oc1c(Cl)cc(Cl)cc1CNc1nccs1 — lower, 12.3%
- OCCC1CN(CC2CC2)CCN1Cc1ccc(F)c(F)c1 (stereo not drawn) — lower, 9.99%
- Cl.O=C(OCCN1CCOCC1)c1cccs1 — lower, 10.2%
- CN(C)c1cccc2c1c(NC(=O)c1ccc(Cl)cc1)nn2C — higher, 14.9%
- c1ccc(CN2CCC(Nc3ncnc4sccc34)CC2)cc1 — lower, -31.2%
- CSc1cccc(NC(=S)N(CCN(C)C)C(C)c2ccccn2)c1 (stereo not drawn) — lower, -0.249%
- O=C(NCCCN1CCOCC1)C(Cl)(Cl)Cl — higher, 16.6%
- COc1ccc(-c2cc3nc(C4CCN(C(=O)OC(C)(C)C)CC4)c(C(=O)O)cn3n2)cc1 — lower, -12.2%
- COc1ccc(N=Nc2cc(-c3ccccc3)ccc2O)cc1 — lower, 3.31%
- COc1cccc2sc3ccc(NCc4ccc5c(c4)OCO5)cc3c(=O)c12 — the same, 14.1%
- Cc1ccc(-n2nc3c(c2NC(=O)c2ccc4c(c2)OCO4)CS(=O)C3)cc1 (stereo not drawn) — lower, 9.01%
- CN(CC(=O)Nc1ccc(N2CCOCC2)cc1)CC(=O)Nc1ccc([N+](=O)[O-])cc1Br — higher, 15.7%
- COc1ccc(C)cc1NC(=O)/C=C/c1ccc(OC)c(S(=O)(=O)N2CCOCC2)c1 — lower, 7.82%
- O=C(CSCc1c(Cl)cccc1Cl)NN=C1CCCC1 — lower, 9.1%
- Cc1cc2oc(=O)cc(CSc3nc(N)cc(N)n3)c2cc1C — lower, 11.7%
- C/C(CCc1oc2c(Br)cc(Br)cc2c1-c1ccc(C)o1)=N\O — higher, 14.3%
- Cc1cc(N2CCCC2=O)cc(C)c1S(=O)(=O)Nc1c(C)nn(C)c1C — higher, 19.1%
- O=C(CN1C(=O)c2ccccc2S1(=O)=O)N1CCc2ccccc21 — lower, 9.52%
- CCCCOC(=O)c1ccc(NC(=O)C(=O)NCCN(CC)CC)cc1 — lower, -14.7%
- CS(=O)(=O)Nc1cccc(C2=NN(S(=O)(=O)c3ccccc3)C(c3ccco3)C2)c1 (stereo not drawn) — lower, 3.15%
- CCOc1cc(C(=O)Nc2ccc(S(=O)(=O)Nc3nnc(CC)s3)cc2)cc(OCC)c1OCC — lower, 13.1%
- CC(=NCc1ccc2c(c1)OCO2)c1c(O)n(-c2ccc(C)cc2)c(=O)[nH]c1=O — lower, 9.74%
- O=C(Nc1ccc(F)cc1F)c1cccn(Cc2ccccc2)c1=O — lower, 9.82%
- O=C(Nc1cccnc1)Nc1cccc([N+](=O)[O-])c1 — lower, 5.71%
- N#Cc1cnn2c1nc(N1CCOCC1)c1ccccc12 — lower, 8.18%
- CC(=O)Oc1ccc2c(C)cc(=O)[nH]c2c1 — higher, 21%
- O=C(CN(Cc1ccccc1)C(=O)CCC(=O)Nc1nccs1)NCc1ccc(F)cc1 — lower, 12.6%
- CCOC(=O)[C@H]1[C@H]2COc3ccc(OC)cc3[C@@H]2N2C(=O)c3cc(F)c(F)cc3NC(=O)[C@@]12C — lower, 12.2%
- Cc1ccccc1-c1nc2sc3c(c2c(=O)o1)CCC3 — lower, 13.2%
- Cc1ccc(S(=O)(=O)N/N=C2/CCCCC2C2CCCCC2)cc1[N+](=O)[O-] (stereo not drawn) — lower, 4.4%
- O=C(NCC(=O)N(c1cnc2ccccc2c1)C(C(=O)NC1CCCC1)c1ccncc1)c1ccco1 (stereo not drawn) — lower, 11.9%
- COCCn1c(Cc2ccccc2)nnc1SCc1ccc([N+](=O)[O-])cc1 — lower, 7.13%
- CCc1ccccc1Nc1nc(N)nc(COC(=O)C2=COCCO2)n1 — lower, 8.02%
- Cc1cc(-c2[nH]nc3c2C(c2ccc(Cl)cc2)C(C#N)=C(N)O3)c(C)s1 (stereo not drawn) — lower, 9.04%
- Cc1nnc(NC(=O)CN2CC(C)OC(C)C2)s1 (stereo not drawn) — lower, 4.98%
- CCOC(=O)C1CCN(C(=O)c2ccc(N3CCCC3=O)cc2)CC1 — lower, 8.86%
- COc1cccc2cc(-c3cc(=O)oc4cc(C)c(OCC(C)=O)cc34)oc12 — lower, 12.8%
- COc1ccc(Sc2ccccc2CN(C)C)cc1OC.Cl — lower, 7.85%
- CCCNC(=O)c1ccccc1NC(=O)COc1cccc2c1OC(C)(C)C2 — lower, 12.4%
- C=CCSc1n[nH]c2nc3c(c(=O)n12)C1(CCCC1)Cc1ccccc1-3 — lower, 12.8%
- S=c1[nH]nc(CSCCOc2ccc(Cl)cc2Cl)o1 — lower, 10.1%
- Nc1[nH]n2c(=O)cc(-c3ccccc3)nc2c1N=Nc1ccccc1 — lower, 12.5%
- Cc1ccc(NC(=O)CN2CCN(CCN=CC3=C(O)CC(c4ccccc4)CC3=O)CC2)cc1 (stereo not drawn) — lower, -11.9%
- O=C(Nc1ccc(N2CCOCC2)nc1)c1ccccc1Cl — lower, 13.2%
- CC1=NN(C(=S)Nc2ccccc2)C(C)(C)C1 — lower, 13.6%
- CCCC(=O)Nc1ccc2c(c1)nc(CN1CCN(C(C)=O)CC1)n2C — lower, 5.31%
- CN(C)/C=N/C(=S)Nc1ccccc1 — lower, 6.9%
- CC(C)(C)c1ccc(C(=O)CCCSC2=C(C#N)C(c3ccco3)C3=C(CCCC3=O)N2)cc1 (stereo not drawn) — lower, 4.64%
- Cc1ccc2nc(C(=O)N3CCc4c([nH]c5ccccc45)C3c3ccccn3)cn2c1 (stereo not drawn) — lower, 10.9%
- CC(=O)NC1=NN(C(C)=O)C(C)(CS(=O)(=O)c2ccc3ccccc3c2)S1 (stereo not drawn) — lower, 8.17%
- CC(C)(C)n1nnc(CCc2nnn(C(C)(C)C)n2)n1 — higher, 17.5%
- CCOC(=O)c1cccc(NC(=O)Nc2ccc3c(c2)C(=O)OC3)c1 — lower, 11.5%
- COc1ccc(S(=O)(=O)N2CCCC(C(=O)Nc3cccnc3)C2)cc1Cl (stereo not drawn) — lower, -3.37%
- CCOc1cc(C(=O)Nc2c(C)ccc3nsnc23)cc(OCC)c1OCC — lower, -7.15%
- CC(=O)Nc1ccc(S(=O)(=O)NCC(CCC(=O)O)C(F)(F)F)cc1 (stereo not drawn) — lower, 11.4%
- Cc1ccc(N=C2NC(=O)/C(=C\c3cccs3)S2)cc1C — lower, 12.4%
- Cc1nnc(SCC(=O)c2c(N)n(Cc3ccccc3)c(=O)n(C)c2=O)n1C — lower, -2.99%
- O=C(O)CC(C(=O)Nc1ccc(F)cc1)C1CCCO1 (stereo not drawn) — lower, 13.4%
- COc1ccc(C(=O)OC2CC[C@@]3(C)C4CCC5[C@]6(O)CC(O)[C@@]7(O)C(CN8CC(C)CCC8[C@@]7(C)O)[C@]6(O)C[C@@]53O[C@]24O)cc1OC (stereo partly drawn) — higher, 16.1%
